# Laboratory results published in PubChem BioAssay AID1347120 (National Center for Advancing Translational Sciences (NCATS), 2019).
# About 930 (0.24%) of roughly 390,000 compounds were called active. This list was built around the results that the source calls inconclusive (neither active nor inactive); the mix of calls is not that of the screen. The call rests on the fitted dose curve; in most records, active means well fitted activation curve with a large enough effect; inconclusive means small, poorly fitted or top-dose-only effect; inactive means no such curve, though single readings can be large or run the other way. Potencies beside an inconclusive call are fits to weak or partial responses and may not hold up.
# Test: qHTS for Suppressors of FUS Proteinopathy: Primary screen using FUS-linked yeast assay; further: nearly all actives have a fitted effect of over 55% in size;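 on growth rescue (activation): plate controls were DMSO vehicle for no effect and reference control for full effect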
# Details: S. cerevisiae FUS-expressing, OD600, 24 h; Potency: growth rescue; growth rescue (activation): at 76.6 µM (top of the series)
# Outline: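 Yeast FUS proteinopathy model; galactose-induced FUS (2%), starting OD 0.005. Cpds in dilution series, 24hr, 30C, 99% humidity. Abs 600 nm growth. Pos ctrl CP55940 (top 92uM final); neg ctrl DMSO.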
# Potency means the concentration at half of the fitted maximal effect; tags describe the fitted curve by direction and shape.
Structure (SMILES),Potency,growth rescue (activation)
CCN(c1ccccc1)S(=O)(=O)c1c(-c2ccc(C)cc2)csc1C(=O)OC,"inconclusive: 15.8 µM [activator, partial curve, poor fit]",
COc1cccc(-n2c(SC3CCOC3=O)nc3ccccc3c2=O)c1 (configuration not stated),"inconclusive: 14.1 µM [activator, partial curve, poor fit]",
COc1ccc2c(c1)NC(C)(C)C=C2C,,inactive: 43.3%
CN1C(=O)[C@H]2[C@@H](c3ccc(C(F)(F)F)cc3)N[C@]3(CCCN(Cc4cccn4C)C3=O)[C@H]2C1=O,"inconclusive: 35.5 µM [activator, single point]",
Cc1cc(S(=O)(=O)Nc2cccc(C(=O)O)c2)c(C)c(S(=O)(=O)c2ccc(Cl)cc2)c1,"inconclusive: 2.82 µM [activator, full curve]",
O=C(O)c1ccc(-c2nc(-c3ccccc3)c(-c3ccccc3)[nH]2)cc1,"inconclusive: 50.1 µM [activator, partial curve, poor fit]",
COc1ccc(OCc2nnc(SCc3ccc(C(=O)O)cc3)o2)cc1,,inactive: 13.8%
CCc1ccc(S(=O)(=O)Nc2cccc(-c3ccc(N4CCOCC4)nn3)c2)cc1,"inconclusive: 50.1 µM [activator, single point]",
COc1cc(C(=O)O[C@H]2CC(C)=CC[C@@]3(C)CC[C@@](O)(C(C)C)[C@H]23)ccc1O,"inconclusive: 4.47 µM [activator, full curve]",
Nc1ccccc1SC(CC(=O)c1ccccc1)c1ccccc1 (configuration not stated),,inactive: 17.6%
CC(C)(C)c1ccc(C(=O)Nc2onc3c2CCCC3)cc1,"inconclusive: 44.7 µM [activator, single point]",
O=C(C[C@@H]1C[C@H]2c3cc(NC(=O)C4CCC4)ccc3O[C@H]2[C@@H](CO)O1)NCc1ccc(-c2ccccc2)cc1,,inactive: 24%
CO/N=C(/CS(=O)Cc1ccccc1Cl)c1ccc(Cl)cc1Cl (configuration not stated),"inconclusive: 28.2 µM [activator, partial curve, poor fit]",
O=S(=O)(Nc1cccc(S(=O)(=O)N2CCCCC2)c1)c1ccccc1F,"inconclusive: 35.5 µM [activator, single point]",
COc1cccc(-c2cnc3c(NC=O)cc(-c4ccc(N(C)C)cc4)cn23)c1,"inconclusive: 50.1 µM [activator, single point]",
CC(C)(C)OC(=O)N1CCC(c2c(C(=O)NCCc3ccccc3)cnn2-c2ccc(F)cc2F)CC1,"inconclusive: 28.2 µM [activator, single point]",
CCC(C)(C)NC(=O)C(c1cccc(OC)c1OC)N(CCC(C)C)C(=O)CCC(=O)Nc1cc(C)on1 (configuration not stated),"inconclusive: 15.8 µM [activator, partial curve, poor fit]",
NC(=O)[C@H](Cc1cc2ccccc2s1)NC(=O)[C@@H]1CC2(CC(c3cccc(NC(=O)[C@@H]4CCC(=O)N4)c3)=NO2)CN1C(=O)/C=C/Sc1ccccc1 (some centres not stated),active: 28.2 µM,
CCCCN1C(=O)C(O)(CC(=O)c2ccc(C)cc2C)c2cc(Br)ccc21 (configuration not stated),,inactive: 36.1%
O=C(NCc1ccco1)c1ccc2c(c1)N(Cc1ccc(F)cc1)C(=O)c1ccccc1S2(=O)=O,"inconclusive: 22.4 µM [activator, partial curve, poor fit]",
COc1ccc(N(CC(=O)N2CCN(c3ccc(F)cc3)CC2)S(=O)(=O)c2c(C)noc2C)cc1,"inconclusive: 15.8 µM [activator, partial curve]",

Structure (SMILES),Potency,growth rescue (activation)
O=c1c2cn[nH]c2nc(SCc2c(F)cccc2F)n1-c1ccc(Cl)cc1,"inconclusive: 35.5 µM [activator, single point]",
COCCCNC(=S)N1CCCN(c2nc3cc(C)ccc3cc2C#N)CC1,"inconclusive: 7.94 µM [activator, full curve]",
CCc1ccccc1N1CSC2=C(C#N)C(c3cc(OC)c(OC)cc3OC)CC(=O)N2C1 (configuration not stated),"inconclusive: 39.8 µM [activator, single point]",
CCCCNc1oc(-c2ccc(COc3ccc(OC)cc3)o2)nc1C#N,,inactive: -1.05%
CCOC(=O)c1ccccc1N=N/C(C(C)=O)=C(/C)O,,inactive: -25%
CCCCNC(=O)/C(C#N)=C/c1ccc2c(c1)OCCO2,,inactive: 3.21%
COC(=O)c1ccccc1NC(=O)CCCn1c(=O)c2cccn2c2cccnc21,,inactive: -15.3%
O=C(CNS(=O)(=O)c1ccccc1)N1CCN(c2ncccn2)CC1,,inactive: 5.15%
O=C(Nc1ccc(N2CCCC2)cc1)C(Cl)c1ccccc1 (configuration not stated),"inconclusive: 17.8 µM [activator, partial curve, poor fit]",
CC(=O)Nc1ccc(N(C(=O)Cn2nnc3ccccc32)C(C(=O)NCc2ccccc2)c2ccc(C)cc2)cc1 (configuration not stated),"inconclusive: 17.8 µM [activator, single point]",
Cc1c(-c2ccccc2)sc2nc[nH]c(=S)c12,,inactive: 15.6%
COc1cc(/C=N/NC(=O)C(=O)/C=C2\NC3(CCCC3)Cc3ccccc32)ccc1O,"inconclusive: 11.2 µM [activator, partial curve]",
Cc1ccc(C)c(N2CCN(C(=O)CCCOc3cc(=O)n(C)c4ccccc34)CC2)c1,"inconclusive: 35.5 µM [activator, single point]",
CCC(C)N(C(C)CC)S(=O)(=O)c1ccc2[nH]c(=O)oc2c1 (configuration not stated),,inactive: 18.2%
COCC(C)n1c(C)cc(C(=O)CN2C(=O)NC(Cc3c[nH]c4ccccc34)C2=O)c1C (configuration not stated),,inactive: 4.01%
CCc1ccc(NC(=O)Cn2c(=O)n(CCC(=O)NCCc3ccc(Cl)cc3)c(=O)c3ccccc32)cc1,,inactive: 9.89%
COc1ccccc1CCNC(=O)C(C)Sc1nc(-c2ccccc2)cc(C(F)(F)F)n1 (configuration not stated),,inactive: -3.45%
COc1ccc(/C=N/OCC(=O)N=Nc2c(O)[nH]c3ccc(Br)cc23)cc1OC,,inactive: 13.9%
CN(Cc1ccccc1)C(=O)c1ccc(NC(=O)Cc2ccc(NC(=O)C3CCN(C(=O)C4CCCC4)CC3)cc2)cc1,"inconclusive: 50.1 µM [activator, single point]",
Cc1cn(COC/C=C/c2ccccc2)c(=O)[nH]c1=O,"inconclusive: 31.6 µM [activator, single point]",
N[C@H](C(=O)N[C@@H](Cc1ccccc1)C(=O)N1CCC2CCN(S(=O)(=O)c3ccccc3)CC21)c1ccccc1 (some centres not stated),,inactive: 10.7%
